Results: PubChem BioAssay AID1461 (National Center for Advancing Translational Sciences (NCATS), 2008)
“And” between values parts separate entries of the source, which are not always exact repeats. Equal values may be shown once. Hit rate of the full screen: of about 220,000 compounds, about 2,300 (1%) were called active. This list was built around the results that the source calls inconclusive (neither active nor inactive); the mix of calls is not that of the screen. Calls follow the shape of the dose curve; as a rule, active = well fitted inhibition curve with a large enough effect; inconclusive = small, poorly fitted or top-dose-only effect, or effect the other way; inactive = no such curve, though single readings can be large or run the other way. Potencies of inconclusive entries are doubtful fits and often do not repeat.

The molecules below were run against Neuropeptide S receptor (Homo sapiens) (UniProt Q6W5P4) (assay: qHTS Assay for Antagonists of the Neuropeptide S Receptor: cAMP Signal Transduction). Details: CHO-NPSR cells, cAMP TR-FRET, antagonist mode; series mostly up to 38.3 µM.
Chain of UniProt Q6W5P4 (Q6W5P4 whole entry, looked up): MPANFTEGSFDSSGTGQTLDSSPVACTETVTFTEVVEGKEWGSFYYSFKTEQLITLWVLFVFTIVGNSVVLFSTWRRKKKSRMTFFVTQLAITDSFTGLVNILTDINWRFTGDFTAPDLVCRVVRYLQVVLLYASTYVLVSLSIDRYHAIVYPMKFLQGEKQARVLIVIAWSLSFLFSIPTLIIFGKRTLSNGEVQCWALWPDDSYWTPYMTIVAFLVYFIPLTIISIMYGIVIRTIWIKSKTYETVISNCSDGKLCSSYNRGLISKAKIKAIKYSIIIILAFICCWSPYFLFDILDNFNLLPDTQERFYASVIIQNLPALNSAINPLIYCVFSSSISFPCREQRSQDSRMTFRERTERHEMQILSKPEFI
Also: nearly all actives have a fitted effect of over 50% in size.
Potency is read from the fitted curve at half-maximal effect; tags tell the direction and shape of the fitted curve.

SMILES	Potency
Cc1ccc(Nc2cc(C)nc(NCc3ccccc3)n2)cc1	inconclusive: 15.8 µM [inhibitor, single point]
CCc1ccc(-c2nc(CN3CCC(C(=O)NCCN(CC)c4ccccc4)CC3)c(C)o2)cc1	inconclusive: 12.6 µM [inhibitor, single point]
Cc1ccccc1Cn1ccc(NC(=O)c2cnn3cccnc23)n1	inconclusive: 0.02 µM [inhibitor, full curve, poor fit]
COc1ccc(-c2onc(C)c2-c2ccc(C(=O)OC(C)C)o2)c(O)c1	inconclusive: 12.6 µM [inhibitor, single point]
CC(=O)Nc1ccc(/C(C)=N/Nc2nc(Nc3cccc4ccccc34)nc(N3CCOCC3)n2)cc1	inactive
Cc1cc(C)c2cc(C)c(SCC(=O)NCc3ccco3)nc2c1	inactive
COc1cc(/C=N/Nc2nc(=O)[nH]nc2C)cc([N+](=O)[O-])c1O	inconclusive: 12.6 µM [activator, partial curve]
CC1CC(C)CN(C(=O)C(C)N(C)CC(=O)Nc2ccccc2Cl)C1 (stereo not given)	inconclusive: 3.98 µM [inhibitor, single point]
COc1cc(NS(=O)(=O)c2ccc(Br)cc2)c(OC)cc1NC(=O)c1ccco1	inconclusive: 12.6 µM [inhibitor, single point]
CCOc1cc(NC(=S)NCC2CCCO2)c(OCC)cc1NC(=O)c1cccc(C)c1 (stereo not given)	inconclusive: 10 µM [inhibitor, partial curve]
Cc1ccc2[nH]c3c(c2c1)CCN1C(=O)OC(C)(C)C31C (stereo not given)	inconclusive: 7.94 µM [activator, partial curve]
O=C1C(NS(=O)(=O)c2cccs2)=C(N2CCOCC2)C(=O)c2ccccc21	inconclusive: 25.1 µM [inhibitor, single point]
CCCc1nc(N2CCCC2)c(C#N)c2c1CCCC2	inactive
COc1ccc(OC)c(C2=NOC(C(=O)Nc3cccc(C(C)=O)c3)C2)c1 (stereo not given)	inactive
CCOC(=O)c1nnc(-c2ccccc2)nc1NCc1ccccc1	inconclusive: 12.6 µM [inhibitor, single point]
Cc1cc(C)cc(CC(Cc2nc3ccccc3[nH]2)c2nc3ccccc3[nH]2)c1 (stereo not given)	inconclusive: 10 µM [inhibitor, partial curve]
O=C(c1ccc(COc2c(F)c(F)cc(F)c2F)o1)N1CCN(c2ccccc2)CC1	inconclusive: 12.6 µM [inhibitor, single point]
Cn1c(SCC(=O)Nc2cccc(Br)c2)nnc1-c1cc2ccccc2o1	inconclusive: 25.1 µM [inhibitor, single point]
Cc1ccccc1-c1noc(-c2ccccc2C(=O)N2CCCC2)n1	inconclusive: 25.1 µM [activator, partial curve, poor fit]
CCO[C@@H]1OC(C(=O)NCc2ccccc2)=C[C@H](c2ccc(C(F)(F)F)cc2)[C@H]1CCCO	inconclusive: 10 µM [activator, partial curve]
COc1ccc(Cn2c3nc4ccccc4nc3c3c(=O)n(Cc4ccco4)cnc32)cc1	inconclusive: 12.6 µM [inhibitor, single point]
CCOC(=O)c1ccccc1NC(=O)C=C(C)C	inactive
CC(NC(=O)CSCc1ccc(Br)cc1)c1ccccc1 (stereo not given)	inconclusive: 12.6 µM [activator, single point]
COc1ccc(CCNC(=O)C2CCN(S(=O)(=O)c3cccc4nsnc34)CC2)cc1OC	inconclusive: 25.1 µM [inhibitor, single point]

SMILES	Potency
CC(C)c1ccc2c(c1)c(SC(C)(C)C)c(CC(C)(C)C(=O)O)n2Cc1ccc(Cl)cc1	inconclusive: 10 µM [inhibitor, single point] and inconclusive: 31.6 µM [inhibitor, single point]
CC(=O)c1cnc2ncnn2c1C	inactive
Fc1ccc(NC(=S)N2CCCC(c3ccccc3)=N2)cc1	inconclusive: 25.1 µM [activator, single point]
Brc1ccc(-c2cn3c(n2)CCc2ccc4cccnc4c2-3)cc1	inconclusive: 10 µM [inhibitor, single point]
CCOC(=O)C1CCCN(c2ncnc3c2[nH]c2cccc(OC)c23)C1 (stereo not given)	inconclusive: 7.94 µM [inhibitor, partial curve, poor fit]
O=c1[nH]n2c(=O)c3c([nH]c2c1N=Nc1cccc(C(F)(F)F)c1)CCCC3	active: 12.6 µM
CCO[C@@H]1OC(C(=O)NCc2ccccc2)=C[C@H](c2ccc(Br)cc2)[C@H]1CCCO	inconclusive: 12.6 µM [activator, partial curve]
Clc1ccc(CSc2ncn(-c3ccccc3)n2)cc1	inconclusive: 10 µM [inhibitor, partial curve]
COc1ccc(OC)c(C2C3=C(COC3=O)Nc3cc4c(cc32)OCO4)c1 (stereo not given)	inconclusive: 0.501 µM [activator, full curve]
CCOc1ccc2sc(NS(=O)(=O)c3ccc(OC)c(OC)c3)nc2c1	inactive
COCCOC(=O)c1c(C)n(C)c2ccc(OC(=O)N3CCOCC3)cc12	inactive
CC(C)c1ccc(NC(=O)C(c2ccccc2)N2CCC3(CC2)OCCO3)cc1 (stereo not given)	inconclusive: 25.1 µM [inhibitor, single point]
Cc1cc(C)nc(SCc2ccc(C(=O)NN=C3C4CC5CC(C4)CC3C5)cc2)n1	inactive
CC12CCC(C(=O)N(CC(O)CN3CCCCC3)C1=O)C2(C)C (stereo not given)	inactive
Cc1ccccc1OCC(=O)Nc1ccccc1N1CCCCC1	inconclusive: 10 µM [inhibitor, partial curve]
CCOP(=O)(OCC)c1nc(-c2ccc(Cl)cc2Cl)oc1N1CCCCC1	inconclusive: 12.6 µM [inhibitor, single point]
Cc1ccc2cc(C)c(SCC(=O)NCc3ccco3)nc2c1	inconclusive: 25.1 µM [inhibitor, single point]
CCOc1nc(Nc2ccc(F)cc2)nc(N2CCN(c3ccc(OC)cc3)CC2)n1	inconclusive: 10 µM [inhibitor, partial curve, poor fit]
Cc1ccc(C(=O)NC(=S)NCC2CCCO2)cc1Br (stereo not given)	inactive
CN(C)c1ccc(/C=c2/sc3n(c2=O)NC2(c4ccccc4)N(C)C(=O)N(C)C2(c2ccccc2)N=3)cc1 (stereo not given)	inactive
Cc1cc(NS(=O)(=O)c2ccccc2)c([N+](=O)[O-])cc1C	inactive
Cc1cc(N/N=C/c2ccccc2[N+](=O)[O-])nc(-n2nc(C)cc2C)n1	inconclusive: 2 µM [activator, full curve]
Cc1sc(NC(=O)C2CCCCC2C(=O)O)c(C(N)=O)c1-c1ccc(C(C)(C)C)cc1 (stereo not given)	inconclusive: 10 µM [inhibitor, single point]
Cc1ccc[n+](CC(=O)c2cc3ccccc3oc2=O)c1	inactive

SMILES	Potency
O=C(Nc1ccccc1F)Nc1ccccc1N1CCCCC1	inconclusive: 2.51 µM [activator, single point]
CCN1/C(=C/C=C/C=C/c2sc3ccccc3[n+]2CC)Sc2ccccc21	active: 7.94 µM
Cc1cc(C(=O)OCC(=O)c2ccc3c(c2)OCCO3)c(C)o1	inactive
Cc1sc2nc(SCc3nc(-c4cccs4)no3)n(-c3ccccc3)c(=O)c2c1C	inconclusive: 10 µM [inhibitor, partial curve, poor fit]
CCc1ccc(C2CC(=O)NC(SCC(=O)OC(C)C)=C2C#N)cc1 (stereo not given)	inconclusive: 12.6 µM [inhibitor, single point]
O=C(/C=N/O)Nc1ccccc1	inconclusive: 20 µM [inhibitor, single point]
CCCOc1ccc(-c2nnn(CC(=O)OCC)n2)cc1	inconclusive: 7.94 µM [inhibitor, partial curve, poor fit]
FC(F)(F)c1cccc(-c2nc3nc(Cl)c(Cl)nc3[nH]2)c1	active: 6.31 µM
Cc1ccccc1CSCCNC(=O)c1ccccc1	inactive
Cc1cc(NC(=O)c2c(Cl)cnn2C)no1	inactive
COc1ccc(CN(C(=O)c2cccs2)C(C(=O)NC2CCCCC2)c2ccc3ncccc3c2)cc1 (stereo not given)	inconclusive: 10 µM [inhibitor, single point]
O=c1cc(O)c2c(=O)n(C3CCCCC3)c3ccccc3c2o1	inconclusive: 12.6 µM [inhibitor, single point]
CC(C)C(=O)N1CCN(c2nc(-c3ccccc3)c3c(c2C#N)CC(C)(C)OC3)CC1	inconclusive: 12.6 µM [inhibitor, partial curve]
CC(=O)N1c2ccccc2C(C)(c2ccccc2)CC1(C)C (stereo not given)	inconclusive: 12.6 µM [inhibitor, single point]
Cc1ccc(S(=O)(=O)Nc2ccccc2/C=N/c2nc3ccccc3n2C)cc1	inconclusive: 15.8 µM [inhibitor, partial curve]
Cc1ccc2nc(NCc3ccccc3)c(C#N)cc2c1	inconclusive: 25.1 µM [inhibitor, single point]
C/C=C(/C)C(=O)OC1c2c(ccc3ccc(=O)oc23)OC(C)(C)C1OC(=O)/C(C)=C\C (stereo not given)	inconclusive: 12.6 µM [activator, partial curve]
CC1CN(Cc2nnc(-c3ccccc3)o2)CC(C)O1 (stereo not given)	inactive
O=C1CC(c2ccco2)CC(O)=C1C=NCC1NCCc2ccccc21 (stereo not given)	inactive
COc1ccc(S(=O)(=O)Nc2ccccc2SC)cc1C	inactive
S=C(Nc1ccc(Cl)cc1)c1nc2ccccc2s1	inactive
O=C(CCc1ccccc1)NNC(=O)c1cccc(F)c1	inactive
